Test results from PMC9896144, “A “grappling hook” interaction connects self-assembly and chaperone activity of Nucleophosmin 1” (PNAS Nexus, 2023).

Target: the molecule itself
Assay: native MS; each NPM1 variant alone; nESI with collision-induced dissociation, collision voltages 25 to 75 V

B1: NPM1_(240), the NTD and the entire IDR of NPM1 (domain or fragment)
chain: not shown
notes: Nucleophosmin 1, human, NTD and entire IDR, C-terminally truncated at residue 240; exact construct and tags are in the supplementary methods; Mostly pentameric; also called NPM240; source: produced by the authors
- stoichiometry N: 5 and 10

Values joined by “and” are separate entries in the source; they are usually repeats but may differ in a detail not shown here. Equal entries are not always repeated.
